The source of these data is US20240390496A1 (UNIVERSITY OF SOUTHERN CALIFORNIA, published 2024).

Common to all, as to experiment: cell-based or functional assay
In one assay the target is CD22 on RAJI cells (UniProt P20273 20-847, limits assumed).
Another assay addresses T1, CD20 on RAJI cells (UniProt P11836 1-297, limits assumed).
T1 sequence (looked up): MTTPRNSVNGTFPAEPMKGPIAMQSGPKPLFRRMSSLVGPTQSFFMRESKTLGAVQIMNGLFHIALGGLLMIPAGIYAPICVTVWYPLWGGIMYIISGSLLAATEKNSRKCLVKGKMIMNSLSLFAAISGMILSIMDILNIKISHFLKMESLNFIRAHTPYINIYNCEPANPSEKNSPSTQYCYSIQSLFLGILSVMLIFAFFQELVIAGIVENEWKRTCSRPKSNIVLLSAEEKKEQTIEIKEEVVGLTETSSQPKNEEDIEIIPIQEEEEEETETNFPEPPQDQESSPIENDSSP

The target of assay [1] is T2, CD19 on RAJI, Nalm6 or RS4;11 cells (human, UniProt P15391 20-556).
T2 sequence (looked up): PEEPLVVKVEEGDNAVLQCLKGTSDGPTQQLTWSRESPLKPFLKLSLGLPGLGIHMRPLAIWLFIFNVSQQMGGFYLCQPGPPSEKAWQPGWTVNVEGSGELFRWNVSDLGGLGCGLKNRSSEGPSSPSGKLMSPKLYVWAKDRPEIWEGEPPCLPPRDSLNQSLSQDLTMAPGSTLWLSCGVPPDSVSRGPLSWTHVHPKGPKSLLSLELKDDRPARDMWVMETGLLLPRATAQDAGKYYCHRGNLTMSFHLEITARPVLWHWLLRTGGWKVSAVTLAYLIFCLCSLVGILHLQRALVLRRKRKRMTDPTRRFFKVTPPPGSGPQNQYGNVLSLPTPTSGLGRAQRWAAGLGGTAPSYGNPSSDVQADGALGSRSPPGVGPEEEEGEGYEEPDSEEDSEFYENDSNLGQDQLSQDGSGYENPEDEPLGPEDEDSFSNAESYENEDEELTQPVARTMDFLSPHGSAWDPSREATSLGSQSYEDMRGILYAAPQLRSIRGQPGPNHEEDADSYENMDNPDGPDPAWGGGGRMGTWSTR

B1: CD8SP-CD22-h10F4v2-scFv-CD16A-F158V-S197P-FL-v3 (receptor)
chain: DIQMTQSPSSLSASVGDRVTITCRSSQSIVHSVGNTFLEWYQQKPGKAPKLLIYKVSNRFSGVPSRFSGSGSGTDFTLTISSLQPEDFATYYCFQGSQFPYTFGQGTKVEIKRGGGGSGGGGSGGGGSEVQLVESGGGLVQPGGSLRLSCAASGYEFSRSWMNWVRQAPGKGLEWVGRIYPGDGDTNYSGKFKGRFTISADTSKNTAYLQMNSLRAEDTAVYYCARDGSSWDWYFDVWGQGTLVTVSSTR[about 200 residues skipped]VSFCLVMVLLFAVDTGLYFSVKTNIRSSTRDWKDHKFKWRKDPQDK
On to B1, for which the “NFAT-GFP assay: JNG cells with the CD16-SAR, no drug selection, co-cultured ~24 h with RAJI” value with CD22 on RAJI cells is 0.1 + score.

B2: CD8SP-CD20-VHH-USC1-CD16A-F158V-S197P-FL-v3 (receptor)
chain: EVQLVESGGGLVQAGGSLRLSCAASGRTFSMGWFRQAPGKEREFVAAITYSGGSPYYADSVKGRFTISRDNAKNTVYLQMNSLKPEDTAVYYCAANPTYGSDWNAENWGQGTQVTVSSTR[about 200 residues skipped]VSFCLVMVLLFAVDTGLYFSVKTNIRSSTRDWKDHKFKWRKDPQDK
For the molecule B2, the “NFAT-GFP assay: JNG cells with the CD16-SAR, no drug selection, co-cultured ~24 h with RAJI” value with CD20 on RAJI cells is 2.6 + score.

B3: CD8SP-CD19Bu12-scFv-CD16A-F158V-S197P-FL-v3 (receptor)
chain: DEIVLTQSPATLSLSPGERATLSCSASSSVSYMHWYQQKPGQAPRLLIYDTSKLASGIPARFSGSGSGTDFTLTISSLEPEDVAVYYCFQGSVYPFTFGQGTKLEIKRGGGGSGGGGSGGGGSQVQLQESGPGLVKPSQTLSLTCTVSGGSISTSGMGVGWIRQHPGKGLEWIGHIWWDDDKRYNPALKSRVTISVDTSKNQFSLKLSSVTAADTAVYYCARMELWSYYFDYWGQGTLVTVSSTR[about 200 residues skipped]VSFCLVMVLLFAVDTGLYFSVKTNIRSSTRDWKDHKFKWRKDPQDK
For the molecule B3, in assay [1], the “NFAT-GFP assay: JNG cells with the CD16-SAR, no drug selection, co-cultured ~24 h with RAJI” value is 0.3 + score.
